In all, about 46,000 compounds went through this assay and about 60 (0.1%) were called active. Another 3% or so got no clear call; they are omitted. Calls come from the whole dose curve; as a rule, active = well fitted inhibition curve with a large enough effect; inconclusive = small, poorly fitted or top-dose-only effect; inactive = no such curve, though single readings can be large or run the other way. The list shows a part of the results.

A short description of the assay: Primary qHTS assay for Inhibitors of ovarian cancer metastasis using an organotypic tumor microenvironment (TME) model.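 For activity change, negative = inhibition: plate controls were DMSO wells for no effect and tomatine positive control wells for full effect.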 Note: nearly all actives have a fitted effect of over 65% in size. As to conditions: SKOV3ip1-GFP adhesion/invasion on 3D omental model, fluorescence; series mostly up to 45.8 µM; activity change, negative = inhibition: at the top concentration. In short, it runs like this: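 A 3D layer of primary human omental fibroblasts, mesothelial cells, fibronectin and collagen I, grown 48 hr, received SKOV3ip1-GFP cells in serum-free medium plus compounds at 0.36-46 umol/L. After 2 hr RT and 16 hr 37 C, fixed adherent GFP cells were counted; normalized to DMSO and tomatine.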
A general note: qHTS replaces the single test concentration by a dilution series.
Regarding `Cc1ccc(-c2noc(CNC(=O)c3ccc(Br)o3)n2)cc1`, the “activity change, negative = inhibition” value was inactive: -24.7%.

In the case of `COc1cccc(N2CC(NC(=O)CCCc3ccccc3)CC2=O)c1` (configuration not stated), the compound was called inactive.

Take `Cc1ccc(NS(=O)(=O)c2c(C)[nH]c(=O)[nH]c2=O)c(C)c1`: the compound was called inactive.

As to `COc1ccc(-c2ccc(NS(=O)(=O)c3ccc(C(C)=O)cc3)cc2)nn1`, the “activity change, negative = inhibition” value is inactive: 3.84%.

In the case of `Cc1cccc(N2CCN(C(=O)c3cn(CC(C)C)c(=O)c4c3c3ccccc3n4C)CC2)c1C`, the “activity change, negative = inhibition” value was inactive: 3.67%.

As to `COc1cc2nccc(Oc3ccc(NC(=O)NC4CC4)c(Cl)c3)c2cc1C(N)=O`, the “activity change, negative = inhibition” value is inactive: -1.22%.

On to `Cc1cccc(N2CCN(C(=O)c3cccc(-n4c(C)nc5cccnc54)c3)CC2)c1C`, for which the “activity change, negative = inhibition” value is inactive: 8.35%.

As to `Cc1ccccc1-c1nc2cc(NC(=O)Cc3ccc(Cl)cc3)ccc2o1`, the compound was called inactive.

For the compound `CCCCCCOc1ccc(C2C(=O)N(C3CCCCC3)CC(=O)N2CCC)cc1` (configuration not stated), the “activity change, negative = inhibition” value is inactive: -30%.

With `CCOc1ccccc1CNC(=O)C1CCN(c2nn3cc(-c4ccc(F)cc4)nc3s2)CC1`, the “activity change, negative = inhibition” value is inactive: 6.6%.

Consider `Cc1cccc(N2CCN(C(=O)Nc3cn(CC(C)C)c(=O)c4ccccc34)CC2)c1C`, for which the “activity change, negative = inhibition” value is inactive: 56.3%.

As to `COc1ccccc1Cc1nc2ccccc2nc1SCC(=O)N(C)c1ccc(F)cc1`, the “activity change, negative = inhibition” value is inactive: 0.908%.

Take `CCOc1ccccc1N(CC(=O)NCCSc1ccccc1)S(=O)(=O)c1ccccc1`: the “activity change, negative = inhibition” value is inactive: -9.95%.

With `N#C/C(=C\c1ccc(Cl)cc1Cl)c1nc(-c2cccc(Cl)c2)cs1`, the “activity change, negative = inhibition” value is inactive: 6.39%.

Take `Cc1ccc(C(=O)Nc2cc3nn(-c4ccccc4)nc3cc2Cl)c(C)c1`: the “activity change, negative = inhibition” value was inactive: -9.89%.

For `CC(C)c1ccc(CN(Cc2ccco2)c2cnc(S(C)(=O)=O)nc2C(=O)Nc2ccc(F)cc2)cc1`, the “activity change, negative = inhibition” value is inactive: 6.52%.

Consider `COc1ccccc1N1CCN(C(=O)Cn2cnc3onc(-c4ccc(F)cc4)c3c2=O)CC1`, for which the call was inactive.

`CCCCN(C)C(=O)C1CCCN(c2ncnc3onc(C)c23)C1` (configuration not stated): the “activity change, negative = inhibition” value was inactive: 0.658%.

For `CCc1nn(CC(=O)NCCCN(CC(C)C)CC(C)C)c(=O)c2cc3sc(C)cc3n12`, the “activity change, negative = inhibition” value is inactive: -5.71%.

Turning to `COc1cccc(N2CC(NC(=O)c3ccco3)CC2=O)c1` (configuration not stated), the compound was classed as inactive.

`CCOc1ccc(C(=O)Nc2cccc(-c3nc4cc(Cl)cc(Cl)c4o3)c2)cc1`: the compound was called inactive.

For `Cc1nn(-c2ccccc2)c2c1N(CC(=O)N1CCN(c3cccc(Cl)c3)CC1)C(=O)CS2`, the outcome was inactive.

With `O=C(c1ccc2c(=O)n(CCc3ccccc3)c(=O)[nH]c2c1)N1CCN(c2ccc(F)cc2)CC1`, the “activity change, negative = inhibition” value is inactive: 5.85%.

Consider `COc1ccc(Cn2c(=O)c3oc4ccccc4c3n(Cc3cccc(C(F)(F)F)c3)c2=O)cc1`, for which the outcome was inactive.

For the compound `COc1ccc(N2CCN(C(=O)C3CCN(S(=O)(=O)c4cccs4)CC3)CC2)cc1`, the “activity change, negative = inhibition” value was inactive: 2.82%.

For the compound `O=C(CC1N=C2c3ccccc3N=C(SCc3ccc(Cl)cc3)N2C1=O)NCc1cccs1` (configuration not stated), the “activity change, negative = inhibition” value is inactive: 10.2%.

For the compound `CC(=O)O[C@]1(C(C)=O)CC[C@H]2[C@@H]3C=C(C)C4=CC(=O)CC[C@]4(C)[C@@H]3CC[C@@]21C`, the “activity change, negative = inhibition” value is inactive: 1.24%.

As for `Cc1ccc(CN2CCSc3ccc(C(=O)N4CCN(c5ccccc5)CC4)cc32)cc1`, the “activity change, negative = inhibition” value was inactive: -9.79%.

Regarding `CCOC(=O)c1ccccc1NC(=O)CSc1nc2cn(CC)nc2c(=O)n1Cc1ccc(Cl)cc1`, the result was inactive.

As for `Cc1ccc2c(c1)c1c(c(=O)n(-c3cccc(Cl)c3)c(=O)n1CC(=O)Nc1c(C)cccc1C)n2C`, the “activity change, negative = inhibition” value is inactive: -5.32%.

As to `Cc1ccc(O)c(C(CCN(C(C)C)C(C)C)c2ccccc2)c1` (configuration not stated), the “activity change, negative = inhibition” value is inactive: -13.1%.

Consider `Cc1ccc(-n2c(Cc3ccccc3)nnc2SCc2nc(-c3cccs3)no2)cc1`, for which the compound was classed as inactive.

As to `O=c1c2cc3c(cc2n(Cc2ccc(Cl)cc2)c(=O)n1Cc1nc(-c2ccccc2)no1)OCO3`, the “activity change, negative = inhibition” value is inactive: 0.323%.

In the case of `Cc1nc(-n2nc(C)c(Cc3ccccc3Cl)c2C)sc1C(=O)Nc1ccccc1F`, the “activity change, negative = inhibition” value was inactive: -3.09%.

`Cc1ccc(C)c(CN2CCCN(Cc3ccc(F)cc3)S2(=O)=O)c1`: the “activity change, negative = inhibition” value is inactive: 0.891%.

For the compound `COc1ccc(CNC(=O)Cc2c(C)c3cc4c(C)coc4c(C)c3oc2=O)cc1`, the “activity change, negative = inhibition” value is inactive: -14.7%.

On to `Cc1ccc(-c2noc(C(C)NS(=O)(=O)c3ccc(C)cc3)n2)cc1` (configuration not stated), for which the “activity change, negative = inhibition” value is inactive: 1.76%.

For `CN1C(=O)Cc2cc(S(=O)(=O)N3CCN(c4ccccc4F)CC3)ccc21`, the “activity change, negative = inhibition” value was inactive: 3.63%.

In the case of `O=C(Nc1cccc(Cl)c1)c1cnc2sc(N3CCCC3)nn2c1=O`, the “activity change, negative = inhibition” value was inactive: -6.78%.

With `COc1ccc(Cl)cc1NC(=O)Cc1ccc(NC(=O)N2CCCCc3ccccc32)cc1`, the call was inactive.

In the case of `COc1ccccc1NC(=O)C(=O)NCC(c1ccc2c(c1)OCO2)N1CCOCC1` (configuration not stated), the “activity change, negative = inhibition” value is inactive: -4.83%.

For the compound `COc1ccccc1/C=C/c1nc2ccccc2n1C(C)C`, the “activity change, negative = inhibition” value is inactive: 3.15%.

As to `Cc1ccc2nc3c(cc(C(=O)NCC4CCCO4)c(=N)n3C(C)C)c(=O)n2c1` (configuration not stated), the “activity change, negative = inhibition” value is inactive: 12.6%.

`CC(C)c1ccc(C2=CC(c3ccc(C(C)C)cc3)n3nnnc3N2)cc1` (configuration not stated): the “activity change, negative = inhibition” value is inactive: -3.81%.

With `CCOC(=O)Cn1c(=O)n(CC2CCCO2)c2nc(-c3ccc(C)cc3)nc(C(N)=O)c21` (configuration not stated), the call was inactive.

Consider `CC(=O)c1ccc(S(=O)(=O)N2CCn3cccc3C2c2ccc(C)cc2)cc1` (configuration not stated), for which the “activity change, negative = inhibition” value is inactive: 0.969%.

As to `CSc1ccc(CCNC(=O)c2cnc3c(C)cccn3c2=O)cc1`, the “activity change, negative = inhibition” value is inactive: -6.29%.
